Measured values: publication PMC4336329 (PLoS ONE, 2015)
About 14,000 (4.5%) of roughly 310,000 compounds showed an effect of 50% or more. Effects have a minus sign here. This is one part of the list.

These compounds were tested against human ether-à-go-go-related gene (hERG) potassium channel (human, UniProt Q12809) (assay: primary screen, population patch clamp on CHO cells stably expressing hERG).
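Also: peak tail current of the secondary pulse compared with the same well before compound.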

Chain of human ether-à-go-go-related gene (hERG) potassium channel (Q12809 whole entry, looked up): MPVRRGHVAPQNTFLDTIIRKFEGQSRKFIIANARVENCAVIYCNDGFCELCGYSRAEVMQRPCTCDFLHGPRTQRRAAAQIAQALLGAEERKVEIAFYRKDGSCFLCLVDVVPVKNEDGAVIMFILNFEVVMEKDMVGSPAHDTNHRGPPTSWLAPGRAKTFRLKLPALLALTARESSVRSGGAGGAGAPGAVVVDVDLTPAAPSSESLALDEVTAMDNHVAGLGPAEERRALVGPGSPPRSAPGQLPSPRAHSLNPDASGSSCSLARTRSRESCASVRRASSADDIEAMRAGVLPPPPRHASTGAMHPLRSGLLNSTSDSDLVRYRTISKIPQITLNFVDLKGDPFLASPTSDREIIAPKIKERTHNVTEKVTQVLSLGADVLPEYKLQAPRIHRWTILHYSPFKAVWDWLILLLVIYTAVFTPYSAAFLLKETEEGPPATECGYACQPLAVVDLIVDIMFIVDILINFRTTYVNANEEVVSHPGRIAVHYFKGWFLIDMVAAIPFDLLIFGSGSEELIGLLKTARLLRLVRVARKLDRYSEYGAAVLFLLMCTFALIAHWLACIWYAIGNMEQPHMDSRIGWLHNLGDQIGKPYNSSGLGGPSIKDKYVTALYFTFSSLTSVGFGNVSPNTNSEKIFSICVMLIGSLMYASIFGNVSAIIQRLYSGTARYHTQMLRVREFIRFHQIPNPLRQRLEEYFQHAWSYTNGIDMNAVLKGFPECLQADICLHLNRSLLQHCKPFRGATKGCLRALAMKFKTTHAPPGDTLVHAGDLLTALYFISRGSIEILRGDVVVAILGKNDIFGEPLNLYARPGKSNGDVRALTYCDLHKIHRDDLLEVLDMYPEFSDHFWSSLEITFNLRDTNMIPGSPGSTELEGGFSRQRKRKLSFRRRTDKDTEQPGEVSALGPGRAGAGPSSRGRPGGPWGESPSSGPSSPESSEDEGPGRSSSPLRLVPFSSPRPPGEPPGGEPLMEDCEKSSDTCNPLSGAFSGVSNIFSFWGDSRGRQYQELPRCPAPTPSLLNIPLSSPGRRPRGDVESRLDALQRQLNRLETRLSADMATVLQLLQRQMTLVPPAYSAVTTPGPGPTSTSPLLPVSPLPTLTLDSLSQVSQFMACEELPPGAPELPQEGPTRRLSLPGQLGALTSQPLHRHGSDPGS

Row | SMILES | hERG current change (%, negative = inhibition) at 10uM [%]
1 | CCC(=O)N1CCCc2cc(S(=O)(=O)N3CCN(c4ccccn4)CC3)ccc21 | -27.7
2 | Cc1ccc(C(=O)CCC(=O)Nc2cccnc2)cc1C | 12.4
3 | Cc1cccc(C2c3[nH]c4ccccc4c3CCN2C(=O)c2cc(CC(C)C)[nH]c(=O)n2)n1 (stereo not shown) | -23.1
4 | O=C(c1ccc(Cl)c(S(=O)(=O)NCc2ccco2)c1)N1CCN(c2ccc(F)cc2)CC1 | -70.3
5 | Nc1c(Cl)c(Cl)nc(C(=O)OCC(=O)N2CCCC2=O)c1Cl | -22.5
6 | COc1ccc(C2CC(=O)c3c(ccc4ccccc34)N2)cc1OC (stereo not shown) | -2.34
7 | Brc1cccc(OCCN2CCOCC2)c1.O=C(O)C(=O)O | 19
8 | Cc1ccc(S(=O)(=O)N(Cc2cccc(Cl)c2)C(=O)N2CCN(C)CC2)cc1 | 9.85
9 | O=C(O)c1cccc(S(=O)(=O)N2CCCC(c3nc4c(nnn4Cc4ccccc4Cl)c(=O)[nH]3)C2)c1 (stereo not shown) | 15.8
10 | CCc1nnc(NC(=O)C(NC(=O)c2ccccc2Cl)C(C)C)s1 (stereo not shown) | 0.192
11 | COc1ccc(CNC(=O)C(C#N)c2nc3ccccc3nc2N2CCCC2)cc1 (stereo not shown) | 10.1
12 | COC(=O)CN1C(=O)[C@H]2[C@@H](C3CC3)N3C(=O)CN(Cc4ccccn4)C(=O)[C@@]3(Cc3ccccc3)[C@H]2C1=O | -1.65
13 | Cc1ccc(C)c(N2CCN(C(=O)C34CC5CC(C3)CC(n3nnc(C)n3)(C5)C4)CC2)c1 | -16.8
14 | CCOc1ccc(S(=O)(=O)N2CCNC(=O)C2)cc1 | 8.04
15 | CCOc1ccc2oc(C(=O)Nc3ccc4c(c3)OCO4)c(C)c2c1 | 13.9
16 | Cc1[nH]c2ccc(C(=O)NCCCN3CCN(C)CC3)cc2c1C | 17.7
17 | CCCCOc1ccc(C(=O)NCC(=O)NCC(c2ccc(F)cc2)N2CCOCC2)cc1 (stereo not shown) | -16.5
18 | CCOC(=O)C1(CC)NC(c2ccc(N(C)C)cc2)C2C(=O)N(C)C(=O)C21 (stereo not shown) | 3.93
19 | CCC(C)(C)NC(=O)CN(Cc1ccc(OC)cc1)C(=O)CCC(=O)Nc1nccs1 | -4.32
20 | CN(C)/C=C/C(=O)c1ccc(-c2ccc(Cl)cc2Cl)o1 | -9.68
21 | N#CCCN1CCN(C(=O)c2c(N)no[n+]2[O-])CC1 | 7.19
22 | CCc1ccc(N2CCN(C(=O)N3CCOCC3)CC2)cc1 | 29.1

Row | SMILES | hERG current change (%, negative = inhibition) at 10uM [%]
23 | Cc1ccc(-n2c3c(c(=O)[nH]c2=O)C(NS(=O)(=O)c2ccc(C)cc2)(C(F)(F)F)C(=O)N3)cc1 (stereo not shown) | -5
24 | Cc1cc(O)cc2c1C(=O)/C(=C/c1ccco1)O2 | 20.1
25 | Cc1oc2c(C)c3oc(=O)c(CCC(=O)NCCCCCC(=O)O)c(C)c3cc2c1C | 34.5
26 | Cc1ccc2nc(N(CCCN(C)C)C(=O)c3ccc4ncsc4c3)sc2c1 | -61.4
27 | COc1ccc(N2CCN(C(=O)CSc3nnc4c(C)cc5ccc(C)c(C)c5n34)CC2)cc1 | -22.6
28 | O=S(=O)(NCCc1csc(-c2ccccc2)n1)c1ccc2c(c1)OCCO2 | -6.59
29 | CCC(=O)NC(c1ccccc1OC)c1ccc2cccnc2c1O (stereo not shown) | -23
30 | COc1ccc(C(=O)N/C(=C\c2ccccc2)C(=O)Nc2ccc(C(=O)NCC(=O)O)cc2)cc1 | 3.48
31 | Cc1c(Br)c([N+](=O)[O-])nn1CC(=O)NCC1CCCO1 (stereo not shown) | 43.6
32 | COc1cccc(C2CC(c3cccs3)=NN2C(=O)c2ccco2)c1O (stereo not shown) | -10.7
33 | Cc1cc(OC(C)C(=O)NCC2CCC(C(=O)O)CC2)c2c3c(c(=O)oc2c1)CCC3 (stereo not shown) | 5.94
34 | COc1ccc(OC)c2[nH]c(=O)c(CCNC(=O)C(C)(C)C)cc12 | 6.42
35 | CC1(C)Oc2ccc3ccc(=O)oc3c2[C@@H](O)[C@@H]1O | 25.7
36 | O=C(O)C1C2C=CC(C2)C1C(=O)NCc1cccs1 (stereo not shown) | 9.44
37 | COc1cc(/C=C/C(=O)OCC(=O)Nc2ccc(S(=O)(=O)N3CCCC3)cc2)ccc1O | 1.5
38 | COc1ccccc1NC(=O)CN1C(=O)C(C)Oc2ccccc21 (stereo not shown) | 0.559
39 | COc1ccccc1CNC(=O)COC(=O)CNS(=O)(=O)c1ccc(NC(C)=O)cc1 | -0.768
40 | Cc1cc(NC(=O)COc2cccnc2[N+](=O)[O-])no1 | 8.27
41 | COc1ccc(CN2C(=O)CC(Cc3cc(C)cc(C)c3)C2=O)cc1OC (stereo not shown) | -9.3
42 | Cc1c(NC(=O)CSc2ncnc3ccccc23)c(=O)n(-c2ccccc2)n1C | -38.8
43 | Cc1ccc(CNC(=O)CCCC(=O)Nc2cc(C)on2)cc1 | 7.73
44 | CNc1cc(CSC)nc(SCc2ccc(Cl)cc2Cl)n1 | 18.5

Row | SMILES | hERG current change (%, negative = inhibition) at 10uM [%]
45 | CCOC(=O)[C@@H]1[C@H]2COc3ccccc3[C@@H]2N2C(=O)N(c3ccc(F)cc3)C(=O)[C@@]12C | 3.27
46 | O=C(c1ccco1)N1CCN(C(=O)c2cccs2)CC1 | 4.71
47 | CCn1c(-c2ccc3ncccc3c2)n[nH]c1=S | -2.22
48 | Clc1ccc(Cn2ncc3c(NCCN4CCOCC4)ncnc32)cc1 | -11.9
49 | CC(C)Sc1ccc(C(=O)Nc2ccc(F)cc2F)cn1 | 13.6
50 | CCN(CC)C(=O)CSc1nnc([C@@H](N)Cc2ccccc2)o1.Cl | -0.884
51 | Cc1ccc2c(CC(=O)NCc3ccc4c(c3)OCO4)coc2c1 | 0.945
52 | Cc1ccccc1-n1c(=O)cc(N2CC(C)OC(C)C2)[nH]c1=O (stereo not shown) | 1.65
53 | CC(=O)N1CCN=C1SCc1ccc(F)cc1 | 6.28
54 | CCOC(=O)C1CCCN(C(=O)CCn2nc(-c3ccccc3)ccc2=O)C1 (stereo not shown) | -41.5
55 | CCC1SC2=NC(C)=C(C(=O)OCCOC)C(/C=C/c3ccccc3OC)N2C1=O (stereo not shown) | -0.0141
56 | COCCCn1c(=N)c(C(=O)NCC2CCCO2)cc2c(=O)n3cccc(C)c3nc21 (stereo not shown) | -73.1
57 | Cc1cc(C)nc(SCC(=O)Nc2ncc3c(n2)CC(C)(C)CC3=O)n1 | -13.1
58 | C=CCNc1oc(COc2ccc(C)cc2)nc1C#N | -17
59 | CCc1cc(C(=O)N2CCN(C(=O)c3ccco3)CC2)sc1C | 10.6
60 | C1CC2CN(c3nc4nonc4nc3N3CCSCC3)CCN2C1 (stereo not shown) | 2.38
61 | O=[N+]([O-])c1ccc(S(=O)(=O)NCC(c2cccnc2)N2CCc3ccccc32)cc1 (stereo not shown) | -31.5
62 | O=C(O)c1ccc(Cl)c(S(=O)(=O)Nc2ccc3cn[nH]c3c2)c1 | -6.08
63 | CCOC(=O)C1=C(CC)Nc2ccccc2N=C1N | 12.9
64 | C=CCn1c(SCc2nc3ccccc3[nH]2)nnc1-c1ccc(OC)cc1 | -7.51
65 | C=CCNC(=O)c1ccc(-c2nc(-c3ccc(Cl)cc3Cl)cs2)cc1 | -0.511
66 | CC(C)CCn1c(=O)c2sccc2n2c(CCCC(=O)N3CCC(N4CCCCC4)CC3)nnc12 | -4.07

Row | SMILES | hERG current change (%, negative = inhibition) at 10uM [%]
67 | Cc1ccc(N2CC(C(=O)N3CCC(C(=O)Nc4nncs4)CC3)CC2=O)cc1 (stereo not shown) | 14
68 | C/C(=N\NC(=O)c1ccc(CN(C)S(=O)(=O)c2ccc(C)cc2)cc1)c1ccc(OC(F)F)cc1 | -26.2
69 | Cc1cc(NC(=O)CSc2ncnc3sc(C)c(C)c23)no1 | 7.01
70 | O=C(Oc1ccccc1N1CCOCC1)c1sccc1Br | 5.53
71 | COc1ccc(NS(=O)(=O)c2cc(C(=O)N3CCN(C/C=C/c4ccccc4)CC3)ccc2C)cc1 | -44.9
72 | O=C(O)c1cccc(NC(=O)c2cn(-c3ccccc3)nc2-c2cccc(Br)c2)c1 | 19.6
73 | CCN(CC(=O)N1CCN(Cc2ccccc2)CC1)S(=O)(=O)c1ccc(C)cc1 | -17.3
74 | COc1cc(C(=O)NCC(c2ccccc2)N(C)C)ccc1OCc1c(C)noc1C (stereo not shown) | -10.4
75 | O=C(CCn1c(=O)oc2ccccc21)N1CCc2ccccc21 | 15.6
76 | Cc1nnsc1C(=O)NC(=O)Nc1ccc(F)c(Cl)c1 | 11.2
77 | O=C(OCc1nc2ccsc2c(=O)[nH]1)c1ccc(Cl)s1 | -5.59
78 | CCc1cc(=O)oc2c(CNC(Cc3ccccc3)C(=O)O)c(O)ccc12 (stereo not shown) | 9.3
79 | O=C(CN1CCN(c2ccccc2)CC1)Nc1c(C(=O)C2CC2)oc2ccccc12 | 4.49
80 | CCc1cccc(C)c1NC(=O)COC(=O)c1c2c(nc3ccccc13)/C(=C\c1cccs1)CCC2 | 10.4
81 | Cc1ccc(C(O)CN2C3=NCCN3c3ccccc32)cc1.Cl (stereo not shown) | -61.1
82 | COc1ccc(C(=O)C2CCCN(Cc3cccn3-c3ccccn3)C2)c(C)c1 (stereo not shown) | -78.9
83 | CN1/C(=C\C=O)C(C)(C)c2ccccc21 | 12.9
84 | CC(c1ccco1)N(C(=O)CSc1ccc(Br)cc1)c1ccccn1 (stereo not shown) | -22.2
85 | CN(C)CC(C)(C)CNS(=O)(=O)c1ccc(OC(F)(F)F)cc1.Cl | 3.54
